Patent US20130171174A1 (INDUSTRIAL TECHNOLOGY RESEARCH INSTITUTE, published 2013)

Target: T1, human epidermal growth factor receptor (EGFR) on A431 cells (human, UniProt P00533)
T1 construct: whole, on cells; The target is presented on fixed A431 cells
Test: ELISA on fixed A431 cells, anti-human Fc-HRP detection, SigmaPlot fit
Description: A431 cells in a concentration of 4×10⁵ cell/ml were seeded in Corning CellBIND 96-well plate for 16-24 h before assay. After PBS wash, the A431 cells were fixed with BD CytoFix fixation buffer for 15-20 min at room temperature. After fixation and PBS wash procedure, the A431 cells were blocked with StartingBlock blocking buffer for 30 min at 37° C. Plates were washed three times with PBST wash buffer and incubated with the indicated concentrations of dAb-D2-hFc and VH-dAb-D2×4-Ig in 50 ul StartingBlock blocking buffer on ice for 1.5 h. Wells were washed three times with PBST wash buffer. After washing, the plate was incubated with HRP-conjugated anti-human Fc antibody diluted 1:10,000 in StartingBlock blocking buffer on ice for 1 hour. Plates were washed and incubated with TMB. Absorbance at 450 nm was read on a microplate reader.

B1: dAb-D2-hFc fusion protein (Fc fusion)
chain: MAQVQLLESGGGLVQPGGSLRLSCAASGYRFNSEAMGWVRQAPGKGLEWVSSINMRGGSTYYADSVKGRFTISRDNSKNTLYLQMNSLRAEDTAVYYCATVPRSMWWAGLTAKPIRYWGQGTLVTVSS[in this place human IgG1 Fc with C220G (EU numbers)]
notes: Dimeric, bivalent form made in CHO cells and purified on protein A, about 80 kDa; No linker between dAb-D2 and Fc is described; also called recombinant dAb-D2-hFc; bivalent antibody
With B1 the Kd was ~52 nM.
